{"source": "PubChem BioAssay AID686978", "about": "(National Center for Advancing Translational Sciences (NCATS), 2013)", "note": "Hit rate of the full screen: of about 420,000 compounds, about 64,000 (15%) were called active. This list was built around the results that the source calls inconclusive (neither active nor inactive); the mix of calls is not that of the screen. Calls come from the whole dose curve; as a rule, active = well fitted inhibition curve with a large enough effect; inconclusive = small, poorly fitted or top-dose-only effect; inactive = flat fitted curve, though single readings scatter. No potency is given beside an inconclusive call; the fits are too rough. % is set by controls: 0 for no effect and ±100 for the full control effect; potency is the fitted concentration of half-maximal effect; tags give direction and shape of the fitted curve.", "data": [{"assay": "qHTS for Inhibitors of human tyrosyl-DNA phosphodiesterase 1 (TDP1): qHTS in cells in absence of CPT; note: nearly all actives have a fitted effect of over 55% in size", "settings": "DT40 Tdp1-/- hTDP1 cells, no CPT, ATP luminescence, 48 h; activity change, negative = growth inhibition: at 46.2 µM (top of the series) unless noted", "method_in_brief": "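Readout: luminescence from CellTiter-Glo after 30 min in the dark at RT. Cells: DT40 Tdp1-/- with stable hTDP1, 400/well. Exposure: compounds alone, ≥48 hr, 37 °C.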", "values": [{"smiles": "COc1ccc(C2=NCN(c3ccc(C)cc3)C(=S)N2)cc1", "Potency": "inconclusive [inhibitor, single point]"}, {"smiles": "O=C(COc1ccc2c3c(c(=O)oc2c1)CCC3)c1ccc2c(c1)OCO2", "Potency": "inconclusive [inhibitor, single point]"}, {"smiles": "CCN(CC)c1ccc(/C=N/O)cc1", "activity change, negative = growth inhibition": "inactive: -27.6%"}, {"smiles": "CSc1nnc(CCNC(=O)/C=C/c2cccc(F)c2)n1-c1ccc(F)cc1", "Potency": "inconclusive [inhibitor, partial curve]"}, {"smiles": "CCOc1cc(C(=S)N2CCOCC2)ccc1OS(=O)(=O)c1ccc(OC)cc1", "Potency": "inconclusive [inhibitor, single point]"}, {"smiles": "C=C(C)CN1CCN(S(=O)(=O)c2ccc(C)c(N(C)S(=O)(=O)c3ccc(C)cc3)c2C)CC1", "Potency": "active: 10.3 µM"}, {"smiles": "O=c1cc(CN(Cc2ccccc2)Cc2ccccc2)c2c(ccc3ccccc32)o1", "Potency": "inconclusive [inhibitor, single point]"}, {"smiles": "CC(C)Oc1cccc(C(=O)NC(=S)NCc2cccnc2)c1", "Potency": "inconclusive [inhibitor, single point]"}, {"smiles": "COc1cccc(NC(=O)Cn2cnc3sc(C)c(S(=O)(=O)N4CCN(C)CC4)c3c2=O)c1", "Potency": "inconclusive [inhibitor, partial curve]"}, {"smiles": "Cc1c(Cl)cnc(NC(=O)COC(=O)c2cc3c(s2)CCC(C)C3)c1Cl", "note": "(stereo not given)", "Potency": "inconclusive [inhibitor, single point]"}, {"smiles": "Cc1c(-n2c(SCC(=O)NC(C)C)nc3ccccc3c2=O)c(=O)n(-c2ccccc2)n1C", "activity change, negative = growth inhibition": "inactive: 5.05%"}, {"smiles": "CC(C)(C)NC(=O)C(c1ccc(C#N)cc1)n1c(=O)c(-c2ccco2)nc2ccccc21", "note": "(stereo not given)", "Potency": "inconclusive [inhibitor, single point]"}, {"smiles": "C#C[C@]1(O)CCC2C3CCC4=Cc5oncc5CC4(C)C3CCC21C", "note": "(stereo not given in full)", "Potency": "inconclusive [inhibitor, single point]"}, {"smiles": "Cc1ccc(C(=O)N2CCCC(C(F)(F)F)C2)cc1S(=O)(=O)N1CCCCC1", "note": "(stereo not given)", "Potency": "inconclusive [inhibitor, single point]"}, {"smiles": "CCCS(=O)(=O)N1CCC(C(=O)NCCN(C)Cc2ccccc2)CC1", "activity change, negative = growth inhibition": "inactive: 2.69%"}, {"smiles": "CC(C)(C)c1ccc(C(=O)CSc2n[nH]c(=O)[nH]c2=O)cc1", "Potency": "inconclusive [inhibitor, partial curve]"}, {"smiles": "O=c1[nH]c(C2CCCN(S(=O)(=O)c3ccccc3)C2)nc2c1nnn2Cc1ccc2c(c1)OCCO2", "note": "(stereo not given)", "Potency": "inconclusive [inhibitor, single point]"}, {"smiles": "CCCCCC/C(=N/O)c1ccccn1", "Potency": "inconclusive [inhibitor, single point]"}, {"smiles": "S=C(Nc1ccccc1)N1CCC(Cc2ccccc2)CC1", "Potency": "active: 3.66 µM"}, {"smiles": "CCOC(=O)c1sc2nc(CSCC(=O)OCc3ccc(C(=O)OC)o3)[nH]c(=O)c2c1C", "activity change, negative = growth inhibition": "inactive: -10.1%"}, {"smiles": "CCCn1nc(C(=O)NCC(C)(C)N2CCOCC2)c2ccccc2c1=O", "activity change, negative = growth inhibition": "inactive: -15.4%"}, {"smiles": "Cc1ccc(-n2cc3c(-c4cccc(Br)c4)nnc(C)c3n2)cc1", "Potency": "inconclusive [inhibitor, single point]"}, {"smiles": "Cc1nn(-c2ccccc2)c2c1C(O)n1c(nc3ccccc31)S2", "note": "(stereo not given)", "Potency": "active: 15.8 µM"}, {"smiles": "O=C(c1ccc2c(c1)CCN2S(=O)(=O)c1ccc(Cl)cc1)N1CCN(c2ccccc2F)CC1", "Potency": "active: 16.4 µM"}, {"smiles": "CCN(c1ccccc1)S(=O)(=O)c1ccc(NC(=S)NC(=O)c2ccc(Br)o2)cc1", "Potency": "inconclusive [inhibitor, single point]"}, {"smiles": "CCOc1ccccc1NC(=O)c1cc(CC(C)C)oc1C", "Potency": "active: 23.1 µM"}, {"smiles": "COc1cc(NC(=O)c2cccc(Cl)c2)c(OC)cc1NC(=O)CN1CCOCC1", "Potency": "inconclusive [inhibitor, single point]"}, {"smiles": "Cc1cc2ncc(-c3ccc(Cl)cc3)c(N)n2n1", "Potency": "inconclusive [inhibitor, partial curve]"}, {"smiles": "CC(C)(C)c1ccc(CS(=O)(=O)CC(O)CN2CCCC2=O)cc1", "note": "(stereo not given)", "Potency": "inconclusive [inhibitor, partial curve, poor fit]"}, {"smiles": "COC(=O)c1cc(S(=O)(=O)NCc2ccccc2OC)cn1C", "Potency": "active: 8.2 µM"}, {"smiles": "Cc1nc2c(c(SCC(=O)Nc3ccccc3C(F)(F)F)n1)CCC2", "Potency": "active: 20.6 µM"}, {"smiles": "COc1ccc(C)cc1NC(=O)CCNS(=O)(=O)c1ccc2c(c1)CCC(=O)N2", "activity change, negative = growth inhibition": "inactive: 12.7%"}, {"smiles": "c1ccc(C(c2ccccc2)c2ccn[nH]2)cc1", "Potency": "inconclusive [inhibitor, single point]"}, {"smiles": "CC1CC(C)CN(C(=O)C2CCC(CNc3c(N4CCCCC4)c(=O)c3=O)CC2)C1", "note": "(stereo not given)", "activity change, negative = growth inhibition": "inactive: 2.09%"}, {"smiles": "COc1ccc(S(=O)(=O)N2CCC(NC(=O)Nc3ccc(C)cc3)CC2)cc1", "Potency": "inconclusive [inhibitor, partial curve, poor fit]"}, {"smiles": "CCOC(=O)C1CCN(C(=O)c2nn(-c3ccc(C)cc3)c(=O)c3c2c2ccccc2n3C)CC1", "Potency": "inconclusive [inhibitor, single point]"}, {"smiles": "COc1ccc(/C=N/NC(=O)c2ccn[nH]2)cc1COc1ccc(Cl)cc1", "Potency": "inconclusive [inhibitor, single point]"}, {"smiles": "Cc1cc2c(c(-c3ccc(Cl)cc3)c1)OC(CNC(=O)Cc1c(C)noc1C)C2", "note": "(stereo not given)", "activity change, negative = growth inhibition": "inactive: -17.9%"}, {"smiles": "COC(=O)C1=C(C)N(C2CCCCC2)C(=O)/C1=C\\c1cccs1", "Potency": "inconclusive [inhibitor, partial curve]"}, {"smiles": "O=C(Nc1nnc(SCc2ccc(Cl)cc2)s1)C1CC(=O)N(Cc2ccccc2)C1", "note": "(stereo not given)", "Potency": "inconclusive [inhibitor, single point]"}, {"smiles": "CCOc1ccccc1C(N)=O", "Potency": "inactive"}, {"smiles": "CCOc1ccccc1N1CC(c2nc3ccccc3n2CCCOc2ccccc2)CC1=O", "note": "(stereo not given)", "Potency": "inconclusive [inhibitor, partial curve]"}, {"smiles": "Cc1oc(-c2ccc(Cl)cc2)nc1CN1CCC(C(=O)N2CCN(Cc3ccccc3)CC2)CC1", "Potency": "inconclusive [inhibitor, single point]"}, {"smiles": "CCCNc1nc2nc3ccccn3c(=O)c2cc1C(=O)NCCN1CCOCC1", "activity change, negative = growth inhibition": "inactive: -10.9%"}, {"smiles": "Cc1cccc2c(C(=O)Nc3ccc(Br)cc3)cc(-c3ccccn3)nc12", "Potency": "inconclusive [inhibitor, single point]"}, {"smiles": "CC(C)N(Cc1ccccc1)C(=O)c1cc2ccc3cccnc3c2[nH]1", "Potency": "active: 18.4 µM"}, {"smiles": "CC(=NN=C(C)c1ccc(O)cc1)c1ccc(O)cc1", "Potency": "active: 16.4 µM"}, {"smiles": "COc1ccc(C)cc1Nc1n[n+](-c2ccccc2)c(-c2cc(OC)c(OC)cc2Br)s1", "Potency": "active: 16.4 µM"}, {"smiles": "COc1cc(S(=O)(=O)N(Cc2cccnc2)Cc2ccco2)ccc1-n1cnnn1", "Potency": "inconclusive [inhibitor, single point]"}, {"smiles": "CCC1CCCCN1C(=O)CSc1nc(N)cc(N)n1", "note": "(stereo not given)", "activity change, negative = growth inhibition": "inactive: -24.9%"}, {"smiles": "CC(C)N1CCC(N2CCN(Cc3ccc(-c4ccccc4Cl)o3)CC2CCO)CC1", "note": "(stereo not given)", "Potency": "inconclusive [inhibitor, single point]"}, {"smiles": "O=C(NCC(c1cccnc1)N1CCOCC1)Nc1ccccc1", "note": "(stereo not given)", "activity change, negative = growth inhibition": "inactive: -2.35%"}, {"smiles": "CCOC(=O)C1=C(COC(=O)c2c(OC)cccc2OC)NC(=O)NC1C", "note": "(stereo not given)", "activity change, negative = growth inhibition": "inconclusive: -33.4% [inhibitor]"}, {"smiles": "COC(=O)c1sccc1NC(=O)c1c(C)c(-c2cccc(Cl)c2)nc2ccccc12", "Potency": "inconclusive [inhibitor, partial curve]"}, {"smiles": "CCCN1C(=O)c2ccccc2NC1c1ccc(OC)c(CSc2ccccn2)c1", "note": "(stereo not given)", "Potency": "inconclusive [inhibitor, single point]"}, {"smiles": "CN(C)CCN1CCN(C2CN(CCc3ccccc3)S(=O)(=O)C2)CC1", "note": "(stereo not given)", "Potency": "inconclusive [inhibitor, single point]"}, {"smiles": "CC(C)CC#Cc1ccc2c(c1)O[C@H](CN(C)C(=O)Nc1ccccc1)[C@@H](C)CN([C@H](C)CO)S2(=O)=O", "activity change, negative = growth inhibition": "inactive: -2.29%"}, {"smiles": "O=C(CCSCCC(=O)NN=Cc1ccc(F)cc1)NN=Cc1ccc(F)cc1", "Potency": "inconclusive [inhibitor, partial curve]"}, {"smiles": "COc1ccc2c(Cl)c(C(=O)NCCCn3ccnc3)sc2c1Cl", "Potency": "inconclusive [inhibitor, single point]"}, {"smiles": "Nc1cc(N)cc(N)c1", "Potency": "active: 4.47 µM"}, {"smiles": "CCN(CC)S(=O)(=O)c1ccc2c3c(cccc13)C(=O)N2", "Potency": "inconclusive [inhibitor, single point]"}, {"smiles": "O=C(COC(=O)c1cc([N+](=O)[O-])ccc1N1CCOCC1)c1ccc(OC(F)F)cc1OC(F)F", "Potency": "inconclusive [inhibitor, single point]"}, {"smiles": "Cc1csc(CN(C)C(=O)CC2C(=O)NCCN2CC(C)(C)C)n1", "note": "(stereo not given)", "activity change, negative = growth inhibition": "inactive: 10.7%"}, {"smiles": "CC(=O)c1cccc(NC(=O)c2ccc(OCc3c(C)noc3C)cc2)c1", "activity change, negative = growth inhibition": "inactive: -18.9%"}, {"smiles": "CCN(CC(=O)Nc1ccc(NC(C)=O)cc1)C(=O)c1ccc(NC2CC2)c([N+](=O)[O-])c1", "Potency": "inconclusive [inhibitor, partial curve]"}, {"smiles": "O=C(CNCc1ccccn1)Nc1cc(S(=O)(=O)N2CCCCC2)ccc1Cl", "activity change, negative = growth inhibition": "inactive: -10.7%"}, {"smiles": "O=C1CN(C(=O)CSc2nnnn2-c2ccc(Cl)cc2)c2ccccc2N1", "activity change, negative = growth inhibition": "inactive: -26.6%"}, {"smiles": "Cc1cc(NC(=O)C(=O)NCCN2CCN(S(C)(=O)=O)CC2)ccc1Br", "Potency": "inconclusive [inhibitor, full curve]"}, {"smiles": "O=C(Nc1ccc(F)cc1)c1cccc(N2C(=O)C3C4C=CC(C5CC45)C3C2=O)c1", "note": "(stereo not given)", "Potency": "inconclusive [inhibitor, partial curve]"}, {"smiles": "COc1ccccc1C(=O)NNC(=O)c1nn(Cc2ccccc2)c(=O)c2ccccc12", "Potency": "inconclusive [inhibitor, single point]"}]}]}
